Measured values taken from the supplement of paper PMC4967469.

What was measured:
Assay in all cases: Viability of human cancer cell lines after 72 h of drug (GDSC screen)
QL-XI-92 = compound: C=CC(=O)Nc1cc(NC(=O)c2ccc(C)c(NC(=O)c3ccno3)c2)cc(C(F)(F)F)c1 [QL-XI-92]; details: top dose 10.24 µM; top dose inferred
Protocol: (§1)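 Human cancer cell lines in 384-well plates, medium with 10% serum, drug for 72 h over a 256-fold dose range (nine 2-fold or five 4-fold steps up to the top dose). Adherent lines were fixed and stained with the nucleic acid dye Syto60, suspension lines read with resazurin; signal relative to control wells, capped at 0 and 100%. One two-parameter sigmoid per drug and line, fitted in a mixed model over all curves with the slope shared within a line.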

XL-184 = compound: COc1cc2nccc(Oc3ccc(NC(=O)C4(C(=O)Nc5ccc(F)cc5)CC4)cc3)c2cc1OC [XL-184]; details: top dose 5.12 µM; top dose inferred
Protocol: as §1

AG-014699 = compound: CNCc1ccc(-c2[nH]c3cc(F)cc4c3c2CCNC4=O)cc1 [AG-014699]; details: top dose 5 µM; top dose inferred
Protocol: as §1

Vinorelbine = compound: CCC1=C[C@@H]2CN(C1)Cc1c([nH]c3ccccc13)[C@@](C(=O)OC)(c1cc3c(cc1OC)N(C)[C@H]1[C@@](O)(C(=O)OC)[C@H](OC(C)=O)[C@]4(CC)C=CCN5CC[C@]31[C@@H]54)C2 [Vinorelbine]; details: top dose 0.064 µM; top dose inferred
Protocol: as §1

Phenformin = compound: N=C(N)NC(=N)NCCc1ccccc1 [Phenformin]; details: top dose 4000 µM; top dose inferred
Protocol: as §1

Gefitinib = compound: COc1cc2ncnc(Nc3ccc(F)c(Cl)c3)c2cc1OCCCN1CCOCC1 [Gefitinib]; details: top dose 0.5 µM
Protocol: as §1

EHT 1864 = compound: O=c1cc(CN2CCOCC2)occ1OCCCCCSc1ccnc2cc(C(F)(F)F)ccc12 [EHT 1864]; details: top dose 10 µM; top dose inferred
Protocol: as §1

NU-7441 = compound: O=c1cc(N2CCOCC2)oc2c(-c3cccc4c3sc3ccccc34)cccc12 [NU-7441]; details: top dose 2 µM; top dose inferred
Protocol: as §1

WHI-P97 = compound: COc1cc2ncnc(Nc3cc(Br)c(O)c(Br)c3)c2cc1OC [WHI-P97]; details: top dose 10.24 µM; top dose inferred
Protocol: as §1

Cell Line	AUC (QL-XI-92)	IC50 (QL-XI-92)	AUC (XL-184)	IC50 (XL-184)	AUC (AG-014699)	IC50 (AG-014699)	AUC (Vinorelbine)	IC50 (Vinorelbine)	AUC (Phenformin)	IC50 (Phenformin)	AUC (Gefitinib)	IC50 (Gefitinib)	AUC (EHT 1864)	IC50 (EHT 1864)	AUC (NU-7441)	IC50 (NU-7441)	AUC (WHI-P97)	IC50 (WHI-P97)
42-MG-BA (glioma, adherent)	0.956	> 10.2 µM	0.924	> 5.12 µM	0.92	> 5 µM	0.961	> 0.064 µM	0.869	> 4000 µM	0.981	> 0.5 µM	0.889	> 10 µM	0.927	> 2 µM	0.98	> 10.2 µM
201T (lung adenocarcinoma, adherent)	0.95	> 10.2 µM	0.967	> 5.12 µM	0.981	> 5 µM	0.527	0.00484 µM	0.716	1220 µM	0.91	> 0.5 µM	0.981	> 10 µM	0.934	> 2 µM	0.964	> 10.2 µM
A2780 (ovary, semi-adherent)	0.893	> 10.2 µM	0.813	2.88 µM	0.759	1.8 µM	0.62	0.00868 µM	–	–	0.973	> 0.5 µM	0.812	5.61 µM	0.981	> 2 µM	0.904	> 10.2 µM
CAL-62 (thyroid, adherent)	0.987	> 10.2 µM	0.988	> 5.12 µM	0.947	> 5 µM	0.626	0.00873 µM	–	–	0.943	> 0.5 µM	0.902	> 10 µM	0.968	> 2 µM	0.987	> 10.2 µM
CAPAN-1 (pancreas, adherent)	0.976	> 10.2 µM	0.946	> 5.12 µM	–	–	0.69	0.0146 µM	0.849	3530 µM	0.987	> 0.5 µM	0.934	> 10 µM	0.987	> 2 µM	0.987	> 10.2 µM
CHSA0011 (chondrosarcoma, adherent)	0.972	> 10.2 µM	0.925	> 5.12 µM	–	–	0.932	> 0.064 µM	0.805	3070 µM	0.971	> 0.5 µM	0.95	> 10 µM	0.969	> 2 µM	0.962	> 10.2 µM
COLO-783 (melanoma, adherent)	0.987	> 10.2 µM	0.99	> 5.12 µM	–	–	0.987	> 0.064 µM	0.989	> 4000 µM	0.985	> 0.5 µM	0.969	> 10 µM	0.962	> 2 µM	0.98	> 10.2 µM
Caov-4 (ovary, adherent)	0.98	> 10.2 µM	0.886	> 5.12 µM	0.98	> 5 µM	0.966	> 0.064 µM	–	–	0.98	> 0.5 µM	0.976	> 10 µM	0.98	> 2 µM	0.962	> 10.2 µM
EBC-1 (lung squamous cell carcinoma, adherent)	0.933	> 10.2 µM	–	–	0.957	> 5 µM	0.582	0.00692 µM	0.88	> 4000 µM	0.979	> 0.5 µM	0.947	> 10 µM	0.943	> 2 µM	0.923	> 10.2 µM
G-292 Clone A141B1 (osteosarcoma, adherent)	0.939	> 10.2 µM	0.837	> 5.12 µM	–	–	0.832	> 0.064 µM	0.802	3620 µM	0.934	> 0.5 µM	0.831	> 10 µM	0.941	> 2 µM	0.963	> 10.2 µM
HCC1500 (breast, adherent)	0.931	> 10.2 µM	0.988	> 5.12 µM	0.988	> 5 µM	0.749	0.0214 µM	–	–	0.969	> 0.5 µM	0.891	> 10 µM	0.966	> 2 µM	0.983	> 10.2 µM
HCC-78 (lung adenocarcinoma, adherent)	0.964	> 10.2 µM	0.888	> 5.12 µM	–	–	0.78	0.0313 µM	0.983	> 4000 µM	0.98	> 0.5 µM	–	–	0.972	> 2 µM	0.983	> 10.2 µM
HL-60 (acute myeloid leukaemia, suspension)	0.918	> 10.2 µM	–	–	0.99	> 5 µM	0.682	0.0121 µM	0.448	183 µM	0.98	> 0.5 µM	0.982	> 10 µM	0.896	> 2 µM	0.975	> 10.2 µM
HSC-2 (head and neck, adherent)	0.984	> 10.2 µM	0.955	> 5.12 µM	–	–	0.414	0.00238 µM	0.862	3010 µM	0.756	0.16 µM	0.948	> 10 µM	0.943	> 2 µM	0.976	> 10.2 µM
HT-1376 (bladder, adherent)	0.985	> 10.2 µM	0.985	> 5.12 µM	0.973	> 5 µM	0.782	0.0317 µM	0.773	1830 µM	0.929	> 0.5 µM	–	–	0.953	> 2 µM	0.984	> 10.2 µM
Hep 3B2_1-7 (liver, adherent)	0.986	> 10.2 µM	–	–	0.986	> 5 µM	0.677	0.0124 µM	0.849	2990 µM	0.987	> 0.5 µM	0.901	> 10 µM	0.944	> 2 µM	0.987	> 10.2 µM
Hs746T (stomach, adherent)	0.951	> 10.2 µM	–	–	0.981	> 5 µM	0.946	> 0.064 µM	0.974	> 4000 µM	0.98	> 0.5 µM	0.952	> 10 µM	0.931	> 2 µM	0.981	> 10.2 µM

Cell Line	AUC (QL-XI-92)	IC50 (QL-XI-92)	AUC (XL-184)	IC50 (XL-184)	AUC (AG-014699)	IC50 (AG-014699)	AUC (Vinorelbine)	IC50 (Vinorelbine)	AUC (Phenformin)	IC50 (Phenformin)	AUC (Gefitinib)	IC50 (Gefitinib)	AUC (EHT 1864)	IC50 (EHT 1864)	AUC (NU-7441)	IC50 (NU-7441)	AUC (WHI-P97)	IC50 (WHI-P97)
HuH-7 (liver, adherent)	0.977	> 10.2 µM	–	–	0.977	> 5 µM	0.776	0.0254 µM	0.816	2210 µM	0.978	> 0.5 µM	0.94	> 10 µM	0.907	> 2 µM	0.984	> 10.2 µM
JHH-4 (liver, adherent)	0.986	> 10.2 µM	0.763	1.84 µM	0.956	> 5 µM	0.894	> 0.064 µM	–	–	0.957	> 0.5 µM	0.878	> 10 µM	0.951	> 2 µM	0.955	> 10.2 µM
LCLC-97TM1 (large cell lung carcinoma, adherent)	0.835	7.69 µM	0.903	> 5.12 µM	0.928	> 5 µM	0.428	0.00249 µM	0.592	459 µM	0.975	> 0.5 µM	–	–	0.92	> 2 µM	0.924	> 10.2 µM
LN-405 (glioma, adherent)	0.91	> 10.2 µM	0.953	> 5.12 µM	–	–	0.908	> 0.064 µM	0.648	716 µM	0.889	> 0.5 µM	0.951	> 10 µM	0.975	> 2 µM	0.975	> 10.2 µM
MDA-MB-330 (breast, adherent)	0.986	> 10.2 µM	0.977	> 5.12 µM	–	–	0.809	0.0392 µM	0.756	1540 µM	0.969	> 0.5 µM	–	–	0.98	> 2 µM	0.971	> 10.2 µM
MDA-MB-415 (breast, adherent)	0.983	> 10.2 µM	0.981	> 5.12 µM	–	–	0.711	0.0196 µM	0.59	481 µM	0.983	> 0.5 µM	0.979	> 10 µM	0.935	> 2 µM	0.98	> 10.2 µM
MDA-MB-436 (breast, adherent)	0.975	> 10.2 µM	0.972	> 5.12 µM	–	–	0.789	0.0367 µM	0.863	> 4000 µM	0.973	> 0.5 µM	0.958	> 10 µM	0.962	> 2 µM	0.968	> 10.2 µM
MDA-MB-453 (breast, adherent)	0.94	> 10.2 µM	0.971	> 5.12 µM	–	–	0.86	0.0638 µM	0.326	77.2 µM	0.984	> 0.5 µM	0.854	9.26 µM	0.983	> 2 µM	0.975	> 10.2 µM
NCI-H810 (large cell lung carcinoma, adherent)	0.914	> 10.2 µM	0.906	> 5.12 µM	0.971	> 5 µM	0.534	0.00492 µM	0.625	545 µM	0.964	> 0.5 µM	–	–	0.987	> 2 µM	0.963	> 10.2 µM
NCI-H2342 (lung adenocarcinoma, adherent)	0.986	> 10.2 µM	0.969	> 5.12 µM	0.983	> 5 µM	0.535	0.00505 µM	0.873	> 4000 µM	0.973	> 0.5 µM	–	–	0.986	> 2 µM	0.946	> 10.2 µM
PFSK-1 (medulloblastoma, adherent)	0.957	> 10.2 µM	0.949	> 5.12 µM	–	–	0.698	0.015 µM	0.716	1070 µM	0.969	> 0.5 µM	0.955	> 10 µM	0.925	> 2 µM	0.971	> 10.2 µM
SISO (cervix, adherent)	0.963	> 10.2 µM	0.978	> 5.12 µM	0.969	> 5 µM	0.583	0.00669 µM	0.571	388 µM	0.968	> 0.5 µM	–	–	0.974	> 2 µM	0.979	> 10.2 µM
SW756 (cervix, adherent)	0.974	> 10.2 µM	0.98	> 5.12 µM	0.985	> 5 µM	0.845	0.0597 µM	0.952	> 4000 µM	0.985	> 0.5 µM	–	–	0.976	> 2 µM	0.984	> 10.2 µM
SiHa (cervix, adherent)	0.987	> 10.2 µM	0.987	> 5.12 µM	–	–	0.917	> 0.064 µM	0.419	145 µM	0.985	> 0.5 µM	0.983	> 10 µM	0.981	> 2 µM	0.984	> 10.2 µM
T-T (oesophagus, adherent)	0.984	> 10.2 µM	–	–	0.987	> 5 µM	0.529	0.00478 µM	0.97	> 4000 µM	0.876	0.496 µM	0.92	> 10 µM	0.928	> 2 µM	0.962	> 10.2 µM
TT (thyroid, adherent)	0.983	> 10.2 µM	–	–	0.962	> 5 µM	0.982	> 0.064 µM	0.938	> 4000 µM	0.942	> 0.5 µM	0.955	> 10 µM	0.969	> 2 µM	0.971	> 10.2 µM

A lower IC50 marks a more sensitive line; fits outside the tested doses are given as limits. For AUC the same curve is integrated over the 256-fold range of doses and scaled to a fraction; values near 1 show little effect. For part of these data: A top dose marked as inferred was calculated from the reported fits.
